From PubChem BioAssay AID1508642 (National Center for Advancing Translational Sciences (NCATS), 2021)
Screen size: about 43,000 compounds; about 200 (0.47%) were called active. Inconclusive results (about 12%) are left out. Calls follow the shape of the dose curve; as a rule, active = well fitted cell-killing curve with a large enough effect; inconclusive = small, poorly fitted or top-dose-only effect, or effect the other way; inactive = flat fitted curve, though single readings scatter. Some of the results follow.

test: Cell viability qHTS assay in S16 Pmp22-F2sN cells; settings: S16 Pmp22-F2sN Schwann cells (luciferase reporters placed in the Pmp22 gene) viability, CellTiter-Glo, 24 h; series mostly up to 57.5 µM; activity change, negative = cytotoxicity: at the top concentration; also: nearly all actives have a fitted effect of over 65% in size
Method in brief: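 Luminescence from CellTiter-Glo, read by CCD camera after a 15 min room-temperature incubation, served as the viability signal. Reporter Schwann cells (S16 Pmp22-F2sN) had been treated with pin-transferred compounds for 24 h at 37C.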
% is scaled to controls: 0 for no effect and ±100 for the full control effect.

Compound | activity change, negative = cytotoxicity
Cc1ccc(CNC(=O)C2CCN(C(=O)c3ccc(-n4ccc5ccccc54)s3)CC2)cc1 | inactive: -1.26%
COc1ccc(-c2cn3c(n2)sc2cc(C(=O)NCc4cccs4)ccc23)cc1 | inactive: 13.1%
COc1ccc(-c2c3c(=O)n(C)c(=O)n(C)c3cn2-c2cccc(N)c2)cc1 | inactive: -12.7%
Cc1ccc(-n2nnc(-c3nsc(NC(=O)c4ccccc4C)n3)c2C)cc1Cl | inactive: 12.9%
CCOc1ccc(Nc2c(S(=O)(=O)c3ccc(Cl)cc3)cnc3ccc(OC)cc23)cc1 | inactive: -22.2%
CCn1cc(C(=O)NCCc2ccc(Cl)cc2)c(=O)c2cc(S(=O)(=O)N3CCc4ccccc4C3)ccc21 | inactive: 5.2%
COc1ccc(Cn2ccc3nc(C)c(C(=O)Nc4ccc(F)cc4)cc3c2=O)cc1 | inactive: 3.29%
O=C1CCc2cc(S(=O)(=O)NCc3ccc(Cl)cc3)cc3c2N1CC3 | inactive: 36.2%
COc1cccc(-c2nnc(-c3cc4cc(Cl)ccc4oc3=O)o2)c1 | inactive: 5.86%
COc1ccccc1NC(=O)c1oc2ccccc2c1NC(=O)C(C)C | inactive: 17.2%
Cc1cccc(NC(=O)CSc2nnc3scc(-c4ccccc4)n23)c1 | inactive: -7.79%
COc1ccccc1NC(=O)Cn1cnc2c(nc3n2CCCCC3)c1=O | inactive: 13.2%
CCC1CCC(C(=O)NC(C(=O)NCCN(CC(C)C)CC(C)C)C(C)C)CC1 (configuration not stated) | inactive: 7.27%
Cc1ccccc1CNC(=O)c1ccccc1NC(=O)c1nsc2ccccc12 | inactive: 5.81%
CC(C)(C)c1ccc(CSc2nc3c(c(=O)[nH]2)CCCC3)cc1 | inactive: 2.96%
O=C(Nc1ccc(Cl)c(C(F)(F)F)c1)C1CCCN(S(=O)(=O)c2cccc3cccnc23)C1 (configuration not stated) | inactive: -7.49%
CC1CCN(S(=O)(=O)c2ccc3c(c2)c(=O)c(C(=O)NCc2ccc(Cl)cc2)cn3C)CC1 | inactive: -18.6%
COc1cc(-c2noc(CSc3nc(-c4ccc(F)cc4)cc(=O)[nH]3)n2)cc(OC)c1OC | inactive: -1.35%
CCN1CCN(c2csc3ccc(F)cc3c2=O)CC1 | inactive: -0.651%
COc1cccc(-c2nnc3n(Cc4ccc(C)cc4)c(=O)c4ccccc4n23)c1O | inactive: -0.344%
COc1ccc(-c2nc3scc(CCNS(=O)(=O)c4c(C)noc4C)n3n2)cc1OC | inactive: -0.478%
COc1cccc(CNC(=O)c2[nH]c3cc(C)ccc3c2Sc2ccccc2)c1 | inactive: -13.5%
CCOC(=O)c1c(S(=O)(=O)NCC(=O)N2CCN(c3cccc(Cl)c3)CC2)c(C)n(C)c1C | inactive: -20%
Cc1cccn2c(=O)cc(CSc3nnc(NC(=O)COc4ccc(F)cc4)s3)nc12 | inactive: -0.819%
CCCOc1ccc(C(=O)Nc2ccc3oc(-c4ccc5ccccc5c4)nc3c2)cc1 | inactive: 2.28%

Compound | activity change, negative = cytotoxicity
CC(=O)c1cccc(NC(=O)CSc2nnc3ccc(-c4ccc(F)cc4)nn23)c1 | inactive: 2.36%
Cn1c(=O)c2c(nc(Oc3ccc(C#N)cc3)n2Cc2ccc(Cl)cc2Cl)n(C)c1=O | inactive: 5.06%
CCOC(=O)c1ccccc1NC(=O)Cn1c(=O)n(CCC(=O)NCc2ccccc2OC)c(=O)c2ccccc21 | inactive: 16.3%
O=C(NCCc1ccccc1)c1cc(-c2ccc(Br)cc2)on1 | inactive: 6.58%
CCOC(=O)c1c(C)oc2ncnc(N3CCN(c4ccc(C)cc4C)CC3)c12 | inactive: 17.4%
Cc1sc2ncn(CC(=O)Nc3ccc(F)cc3Cl)c(=O)c2c1S(=O)(=O)N1CCN(c2ncccn2)CC1 | inactive: 23.2%
CCOC(=O)c1cccc(-n2nnc3c(sc4nc(C)c(Br)c(C)c43)c2=O)c1 | inactive: -2.8%
O=C(Nc1ccc(Br)cc1F)c1cc(S(=O)(=O)NC2CCCC2)ccc1F | inactive: -6.53%
COc1cc(C2CC(=O)c3c([nH]c(C(=O)OCc4ccc(C)cc4)c3C)C2)cc(OC)c1OC (configuration not stated) | inactive: -2.7%
Cc1cccc(C(c2sc3nc(-c4ccco4)nn3c2O)N2CCN(Cc3ccccc3)CC2)c1 (configuration not stated) | inactive: -2.66%
CCOC(=O)c1ccccc1NC(=O)Cn1c(=O)n(CCC(=O)N2CCc3ccccc3C2)c(=O)c2ccccc21 | inactive: 9.93%
COc1ccccc1-c1nnc(C2CCN(C(=O)c3cccc(Cl)c3)CC2)o1 | inactive: 6.14%
COc1cc(NC(=O)c2cc(Cl)ccc2Cl)ccc1NC(=O)c1cc2ccccc2o1 | inactive: 25.5%
Cc1ccc(NC(=O)/C=C/c2ccc(Cl)cc2)c(Br)c1 | inactive: 12.4%
CCS(=O)(=O)N1CCc2cc(C(=O)NCc3ccc(Cl)cc3)ccc21 | inactive: 16.4%
CN(C)c1ccc(CNC(=O)c2cnc3sc(N4CCCC4)nn3c2=O)cc1 | inactive: 1.73%
COCCCNC(=O)c1[nH]c2ccccc2c1Sc1ccc(C)cc1 | inactive: 7.43%
Cc1ccccc1NC(=O)Cn1c(=O)n(CCCCCC(=O)NCc2ccccc2Cl)c(=O)c2sccc21 | inactive: 7.72%
CCNc1nc(N)nc(Oc2ccc(OCC(=O)OC)nn2)n1 | inactive: 0.777%
CCN(CC)CCNc1ncnc2c1cnn2-c1cc(Cl)ccc1C | inactive: -3.7%
CCOc1ccc(-c2nc(CNC(=O)NC3CCCCC3)c(C)o2)cc1 | inactive: 6.73%
Cc1ccc(C(=O)Nc2nc3nc(C)cc(=O)n3[nH]2)cc1 | inactive: 12.9%
CC(C)c1ccc(-c2noc(SCC(=O)N3CCN(c4ccc(F)cc4)CC3)n2)cc1 | inactive: 1.49%
CCOc1ccc(OCc2ccc(C(=O)Nc3cc(OC)c(OC)c(OC)c3)o2)cc1 | inactive: -0.25%
O=C(CCc1ccccc1)N(Cc1cccnc1)c1nc2c(F)cc(F)cc2s1 | inactive: -6.33%

Compound | activity change, negative = cytotoxicity
Cc1ccc(C)c(NC(=O)N(C)CCc2c(C)nn(C)c2C)c1 | inactive: 2.29%
COc1ccc(CCNS(=O)(=O)c2cc(-c3cc(C)no3)ccc2OC)cc1OC | inactive: -1.12%
Cc1ccc(N2CC(C(=O)NCCS(=O)(=O)N3CCN(c4ccccc4)CC3)CC2=O)cc1C (configuration not stated) | inactive: 22.9%
COc1ccc(CCNc2nc3ccc(Cl)cc3n3cnnc23)cc1OC | inactive: 15.8%
Cc1cccc2nc(-c3ccc(N(C)C)cc3)c(Nc3ccc4c(c3)OCO4)n12 | inactive: -1.5%
O=C(NCCc1csc(-c2ccc(Cl)cc2)n1)c1ccco1 | inactive: 4.43%
COc1cccc(CNC(=O)CSc2nc(=O)[nH]c3c2CCC3)c1 | inactive: 5.89%
CCCN(C(=O)C(=O)Nc1ccc2nc3n(c(=O)c2c1)CCCCC3)c1ccc(OCC)cc1 | inactive: 6.97%
CCOc1ccccc1C(=O)Nc1cccc2ccc(C)nc12 | inactive: -4.36%
COc1cccc(CCNC(=O)c2ccc(Cn3c(SCc4ccccc4)nc4cccnc43)cc2)c1 | inactive: -25.7%
CCOc1ccc(NC(=O)NC(C)c2c(-n3cccc3)sc3c2CCN(CC)C3)cc1 (configuration not stated) | inactive: -19.5%
O=C(Nc1ccc2nc(SCCOc3ccccc3)sc2c1)c1ccco1 | inactive: 6.33%
Cc1cccn2c(=O)c3cc(C(=O)NC(C)C)n(C)c3nc12 | inactive: 20.5%
Cc1cccc(-c2nc3cc(NC(=O)c4ccc(OCC(C)C)cc4)ccc3o2)c1 | inactive: 12.3%
Cc1ccn2c(c1)nc(=O)c1cc(S(=O)(=O)N3CCCCC3)ccc12 | inactive: 1.31%
COc1ccc(NC(=O)c2cnc(N3CCOCC3)c3ccccc23)cc1OC | inactive: 17.8%
Cc1ccccc1NC(=O)C1CCN(C(=O)c2ccc(F)cc2)CC1 | inactive: 3.62%
CCOc1ccc(NC(=O)Cn2cc(C(=O)c3ccc(F)cc3)c(=O)c3cc4c(cc32)OCO4)cc1 | inactive: -4.13%
COc1ccc(CCNC(=O)C(=O)NCC(c2ccco2)S(=O)(=O)c2cccs2)cc1 (configuration not stated) | inactive: -3.55%
CCC(Sc1nc2cc3c(cc2c(=O)n1CCCCCC(=O)NCc1ccc2c(c1)OCO2)OCO3)C(=O)NCCCOC (configuration not stated) | inactive: 9.85%
Cc1nn2c(=O)cc(COC(=O)c3ccc(NC(=O)CCc4ccccc4)cc3)nc2s1 | inactive: 0.684%
Cc1cccc(OCCn2c(SCC(N)=O)nc3ccccc32)c1 | inactive: -14.1%
CCc1noc(-c2ccc(N3CCC(C)CC3)c([N+](=O)[O-])c2)n1 | inactive: -19.8%
O=C(CN1C(=O)c2cccnc2Oc2ccc(Cl)cc21)NCCCN1CCCCC1 | inactive: 10.1%
CC(C)C(=O)Nc1ccccc1C(=O)OCc1cc(=O)n2nc(C3CC3)sc2n1 | inactive: 20.1%

Compound | activity change, negative = cytotoxicity
COc1ccc(Cn2c(CCC(=O)Nc3ccc(Br)c(C)c3)nc3cccnc32)cc1 | inactive: -1.88%
CCCCCn1c(=O)[nH]c2cc(C(=O)N3CCN(c4ccc(OC)cc4)CC3)ccc2c1=O | inactive: -21.6%
CN(C)c1ccc(C(=O)Nc2sc(Nc3ccccc3)nc2C(N)=O)cc1 | inactive: -1.11%
Cc1ccc(NC(=O)CN(C)S(=O)(=O)c2cccc3cccnc23)c(C)c1 | inactive: 14.5%
O=C(Cn1nnc(-c2ccc(C(F)(F)F)cc2)n1)NCCc1ccccc1 | inactive: 3.95%
Cc1cc(C)cc(NS(=O)(=O)c2cc3[nH]c(=O)c(=O)[nH]c3cc2C)c1 | inactive: 10%
CCOC(=O)C1CCC(CN(Cc2ccc(OC)cc2)S(=O)(=O)c2ccc(C)cc2)CC1 (configuration not stated) | inactive: 2.84%
CCCC(=O)Oc1c(Sc2ccc(C)cc2)c(C)nn1-c1ccccc1 | inactive: 1.52%
COc1cc(OC)c(C(=O)NCc2nc(-c3ccccc3)no2)cc1OC | inactive: -8.29%
CCc1ccc(CN(Cc2ccco2)c2cnc(S(C)(=O)=O)nc2C(=O)Nc2ccc(C)c(Cl)c2)cc1 | inactive: -2.28%
COc1ccc(NC(=O)c2sc3nc(C)c(C(=O)Nc4ccc(C)cc4C)c(-c4sccc4C)c3c2N)cc1 | inactive: 12.5%
CCc1c(CN2CCN(c3ccc(F)cc3)CC2)csc1C | inactive: 25.6%
CC(=O)Nc1ccc2nc(SCCOc3ccc(C)cc3)sc2c1 | inactive: 12%
COc1ccc(C)cc1Nc1nc2c(S(=O)(=O)c3cc(C)ccc3C)nnn2c2ccsc12 | inactive: 27.2%
Cc1ccc(CN2CCC(CNC(=O)Nc3ccccc3F)CC2)cc1 | inactive: -20.2%
O=C(COc1ccc(Cl)cc1)NCCc1csc(-c2ccc(C(F)(F)F)cc2)n1 | inactive: 15.8%
COCCNc1nc2c(S(=O)(=O)c3ccccc3)nnn2c2ccc(Cl)cc12 | inactive: -21.6%
COc1cc2c(cc1NC(=O)COc1cc(C)cc(C)c1)oc1ccccc12 | inactive: 9.55%
CN(Cc1ccccc1)C(=O)C(=O)Nc1ccc2nc3n(c(=O)c2c1)CCCCC3 | inactive: 16.4%
COc1ccc(-n2c(=O)c3ccc(C(=O)NCc4ccc(C)cc4)cc3n(CC(=O)Nc3cccc(F)c3)c2=O)cc1 | inactive: 8.56%
Cc1ccc(CNC(=O)c2cc3cc(C)ccc3n2C)cc1 | inactive: 3.95%
CNc1ccc(-c2nc(-c3ccccn3)no2)cc1[N+](=O)[O-] | inactive: -4.93%
